{"source": "PubChem BioAssay AID624296", "about": "(National Center for Advancing Translational Sciences (NCATS), 2012)", "note": "The whole screen tested about 350,000 compounds, of which about 9,900 (2.8%) were called active. The inconclusive results got no clear call from the source; some entries with a clear call stand among them for comparison. Calls follow the shape of the dose curve; as a rule, active = well fitted activation curve with a large enough effect; inconclusive = small, poorly fitted or top-dose-only effect; inactive = no such curve, though single readings can be large or run the other way. Potencies of inconclusive entries are left out as doubtful fits. Potency is read from the fitted curve at half-maximal effect; tags tell the direction and shape of the fitted curve.", "data": [{"assay": "A quantitative high throughput screen for small molecules that induce DNA re-replication in MCF 10a normal breast cells; also: nearly all actives have a fitted effect of over 50% in size; as to activity, positive = re-replication: % of control where 0% means no effect.", "details": "MCF 10A DNA re-replication, Hoechst nuclear intensity, 48 h; activity, positive = re-replication: at 46.1 µM (top of the series)", "values": [{"smiles": "COc1cc(C(=O)OC(C)C(=O)NC(=O)NC2CCCCC2)ccc1OC(F)F", "note": "(configuration not stated)", "activity, positive = re-replication": "inactive: -3.82%"}, {"smiles": "Cc1nn(CC(=O)N2CCN(c3ccc(Cl)cc3)CC2)c(=O)c2cccn12", "activity, positive = re-replication": "inactive: -1.03%"}, {"smiles": "CCS(=O)(=O)Nc1cccc(C2=NN(S(=O)(=O)c3ccccc3)C(c3cccs3)C2)c1", "note": "(configuration not stated)", "Potency": "inconclusive [activator, partial curve]"}, {"smiles": "C#CCOCCOCCOCCNc1nc(N2CCN(C(=O)CCCCCCCCCCNC(=O)[C@@H](CCC(=O)O)n3cc(CCCCCN)nn3)CC2)nc(N2CCN(C(=O)CCCCCCCCCCNC(=O)[C@H](CCCCN)n3cc(C[C@@H](C)CC)nn3)CC2)n1", "Potency": "inconclusive [activator, single point]"}, {"smiles": "CCn1c(SCc2nc(-c3ccc(OC)c(OC)c3)no2)nnc1-c1cccs1", "activity, positive = re-replication": "inactive: 15.5%"}, {"smiles": "Cc1[nH]n(-c2ccc(Cl)cc2)c(=O)c1C(=O)c1ccccc1", "Potency": "active: 4.61 µM"}, {"smiles": "COC(=O)[C@]1(C)N[C@H](CN(C)S(=O)(=O)c2ccc(OC)cc2)[C@@H]2C(=O)N(C)C(=O)[C@@H]21", "activity, positive = re-replication": "inactive: -0.555%"}, {"smiles": "O=C(CSc1nc2ccccc2[nH]1)Nc1cccc(S(=O)(=O)N2CCOCC2)c1", "Potency": "inconclusive [activator, single point]"}, {"smiles": "COC(=O)c1cc(S(=O)(=O)n2nc(C)c(Br)c2C)c(Cl)cc1Cl", "Potency": "inconclusive [activator, single point]"}, {"smiles": "COc1ccc(Br)cc1CN(C)C(=O)c1ccccc1OCc1c(C)noc1C", "activity, positive = re-replication": "inactive: 8.25%"}, {"smiles": "CC(=O)N1CCc2c(sc(NC(=O)c3cccc(N4C(=O)CCC4=O)c3)c2C(N)=O)C1", "activity, positive = re-replication": "inactive: -41.6%"}, {"smiles": "CCn1c(SCC(=O)Nc2ccc(C(C)=O)cc2)nc2nc3c(cc2c1=O)CCCC3", "Potency": "inconclusive [activator, single point]"}, {"smiles": "CCN(Cc1ccccc1)S(=O)(=O)c1ccc(C(=O)Nc2nnc(-c3ccccc3OC)o2)cc1", "Potency": "inconclusive [activator, full curve, poor fit]"}, {"smiles": "C[C@H]1[C@@H](OC(=O)CCC(=O)O)OC2OC3(C)CC[C@H]4[C@H](C)CC[C@@H]1[C@@]24OO3", "note": "(some centres not stated)", "Potency": "inconclusive [activator, partial curve, poor fit]"}, {"smiles": "S=C(Nc1ccccc1Cl)N1CCCCC1", "Potency": "inconclusive [activator, single point]"}, {"smiles": "CCNc1nc(NCC)n2c(SC(C(=O)Nc3cc(C)ccc3C)c3ccccc3)nnc2n1", "note": "(configuration not stated)", "Potency": "inconclusive [activator, partial curve, poor fit]"}, {"smiles": "Cc1cccc(NC(=O)c2ccc(C3SCC(=O)N3CCc3ccccc3)cc2)c1", "note": "(configuration not stated)", "Potency": "inconclusive [activator, single point]"}, {"smiles": "Cn1nc(C(=O)OCC(=O)c2ccc(Cl)cc2)c2ccccc2c1=O", "activity, positive = re-replication": "inactive: 0.475%"}, {"smiles": "COc1ccccc1OCC(=O)NNc1c2ccccc2nc2ccccc12", "activity, positive = re-replication": "inactive: 0.98%"}, {"smiles": "O=C(O)c1ccc2c(=O)n3c(nc2c1)/C(=C/c1ccccc1Br)CC3", "activity, positive = re-replication": "inactive: -2.95%"}, {"smiles": "C=CCn1c(Sc2ccccc2)nc2c1c(=O)[nH]c(=O)n2C", "activity, positive = re-replication": "inactive: 2.28%"}, {"smiles": "O=C(Nc1ccc2c(c1)CCCN2C(=O)c1cccs1)c1c(F)cccc1Cl", "Potency": "inconclusive [activator, single point]"}, {"smiles": "Cc1ccc(S(=O)(=O)N[C@H](C(=O)OCC(=O)N2N=C(c3ccc(Cl)cc3)CC2c2ccco2)C(C)C)cc1", "note": "(some centres not stated)", "Potency": "inconclusive [activator, partial curve, poor fit]"}, {"smiles": "CCCCNC(=S)Nc1ccccc1Cc1ccccc1", "activity, positive = re-replication": "inactive: -0.665%"}, {"smiles": "O=C(N/N=C/c1cc([N+](=O)[O-])ccc1O)Nc1ccccc1", "Potency": "inconclusive [activator, single point]"}, {"smiles": "CCOC(=O)c1nnn(-c2nonc2-n2cccc2)c1-c1cccc([N+](=O)[O-])c1", "Potency": "inconclusive [activator, single point]"}, {"smiles": "O=C(N/N=C/c1cccc([N+](=O)[O-])c1)c1cc2ccccc2o1", "Potency": "inconclusive [activator, full curve, poor fit]"}, {"smiles": "CCOC(=O)N1CCC(NC(=O)c2cnn3c(C(F)(F)F)cc(-c4cccc(OC)c4)nc23)CC1", "Potency": "inconclusive [activator, partial curve, poor fit]"}, {"smiles": "COc1ccc(CCNc2ccc([N+](=O)[O-])cn2)cc1", "Potency": "inconclusive [activator, full curve, poor fit]"}, {"smiles": "COc1ccc(S(=O)(=O)Nc2cc3c4c(c2)C(C)C(=O)N4CCC3)cc1OC", "note": "(configuration not stated)", "activity, positive = re-replication": "inactive: 0.34%"}, {"smiles": "Nc1[nH]nc2c1NN(c1ccc(Cl)cc1Cl)N2", "Potency": "inconclusive [activator, partial curve, poor fit]"}, {"smiles": "CCOC(=O)c1c(-c2ccccc2)nc2cc(C)ccn12", "Potency": "inconclusive [activator, partial curve, poor fit]"}, {"smiles": "CC(C)CC(c1nnnn1C1CCCC1)N1CCN(c2ccccc2F)CC1", "note": "(configuration not stated)", "Potency": "inconclusive [activator, single point]"}, {"smiles": "CCNC(=S)/N=C(\\N)Nc1nc(C)c2cc(C)ccc2n1", "activity, positive = re-replication": "inactive: 6.28%"}, {"smiles": "COc1cccc(OCCOc2ccc(/C=C3/SC(=S)NC3=O)cc2)c1", "Potency": "inconclusive [activator, single point]"}, {"smiles": "Cc1nnc(C)c2c(C)n(-c3ccc(Cl)c(N)c3)c(C)c12", "Potency": "inconclusive [activator, single point]"}, {"smiles": "CC(=O)C1CCC2C3CC=C4CC(SC(=N)N)CCC4(C)C3CCC12C", "note": "(configuration not stated)", "Potency": "inconclusive [activator, partial curve]"}, {"smiles": "Brc1ccc(-c2csc(-c3c[nH]c4ccccc34)n2)cc1", "Potency": "inconclusive [activator, partial curve, poor fit]"}, {"smiles": "N#CC1=C(N)NC(SCC(=O)O)=C(C#N)C12CCCC2", "activity, positive = re-replication": "inactive: -1.97%"}, {"smiles": "Cc1cc(=O)[nH]c2c1c(C)nn2C1CCCCC1", "Potency": "active: 6.51 µM"}, {"smiles": "COc1cc(C(=O)OCC(=O)c2cc(C)n(C)c2C)cc(OC)c1OC", "Potency": "inconclusive [activator, single point]"}, {"smiles": "O=C(CNC(=O)c1cc2c(s1)CCC2)Nc1ccccc1Br", "Potency": "inconclusive [activator, partial curve, poor fit]"}]}]}
